# ± gives the standard deviation of the averaged measurements. The list shows a part of the results.
# Tested on: PfAP2-EXP AP2 domain (GST-tagged)
# Assay: gcPBM binding intensity (ln(normalized median fluorescence intensity)); higher = stronger DNA binding
# Procedure, shortened: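 An Agilent 4 × 180k array of primer-extended double-stranded 36-bp intergenic genomic probes, with negative controls, was incubated for 1 h with GST-tagged P. falciparum DNA-binding domains expressed in E. coli. Alexa488 anti-GST antibody detected bound protein, scanned at 488 nm. Binding intensity is the highest Masliner-normalised natural-log median intensity across replicate spots of either probe orientation.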
row,Sequence,gcPBM binding intensity (ln)
1,AATAAACATAGATGTACACACATATACAGATATATA [CACACA_site5570],8.54 ± 0.38
2,TTGTTCTATATATATGCATGCACGTATGTTAAATTA [TGCATGCA_site659],10.17 ± 0.028
3,TATTAATTTTTATACGCATGTGTATAGTAATATATA [TGCATGCA_site1010],8.49 ± 0.35
4,TCTCATATATTGAATTGTACATATGTTAAAATATAG [XGTACX_site6764],8.62 ± 0.49
5,TATTTATTTTTTTTTGTGCACTTAATATAATCTTAC,8.94 ± 0.3
6,ACACTAACATCATATCGTACATTTGTTAATTTATAA [XGTACX_site8654],8.71 ± 0.39
7,TTTTCCCTCTTATTCACACAAAAAAAATAAAATAAA [CACACA_site4656],8.49 ± 0.61
8,TTTTTATTTATATGATACTTATATATATATATATAT [CACACA_negctrl_site462],10.2 ± 0.16
9,TTCTTAATATTGCATGCACACTATATAATAATTGAA [CACACA_site4720],10.41 ± 0.057
10,TCTTTTAAAAAAATTTGTACATATTTTTTGTATTAT [XGTACX_site67],8.54 ± 0.43
11,TGTTCTTTGTTCAGCGCATGTAAAATAAAATAAAAT [TGCATGCA_site629],9.04 ± 0.77
12,TTTTTTTTTGAATACAGTACACAAGTGTTAAGTTTA [XGTACX_site7069],8.26 ± 0.39
13,TATGAATATCTATACACACACATATATATACCCACT [CACACA_site4963],8.73 ± 0.67
14,GATTGATTATATGTGTGTACTTATATGTTAAAAAAA [XGTACX_site4784],8.74 ± 0.18
15,TTTATTCTTGAGTATTGTACATATGTGTTTGTATAT [XGTACX_site5706],8.57 ± 0.46
16,AAAGGTGTCATATATGCACACAAAAGTAACACGCAC [CACACA_site8051],9.27 ± 0.41
17,TATTTGAAAACATAGGTGCACATTATTTTATAATCT [GTGCAC_site9947],9.13 ± 0.65
18,GAAAGAATAAAATTTACACACATATAAATATACATA [CACACA_site7125],8.27 ± 0.41
19,AGGAGGATGCATATGGCACACATTATGAAACTGTCG [CACACA_site299],8.92 ± 0.71
20,TATATATATATATGTAGTACTCAATATTGTAGATTA [XGTACX_site3856],10.1 ± 0.2
21,AAATATATGTATATATGTACATATGTGTGCTATCAT [XGTACX_site1604],8.71 ± 0.28
22,TAATTTTTTTTTAATTGTACATGTGAATATATTTCA [XGTACX_site4115],8.4 ± 0.42

row,Sequence,gcPBM binding intensity (ln)
1,GTTTACATTTTAAGAAGTACAAAATTTATGGTTAAA [XGTACX_site450],8.59 ± 0.45
2,GAAAAAACGAAAAAAATACACACCTGAAAAGATATG [CACACA_site887],8.62 ± 0.43
3,ATACATACAAAAATTTGTACATATTTCCAATAATGT [XGTACX_site2658],8.41 ± 0.35
4,AAATTTCCATTTGGGTGTACATGTGAAACTACAAAG [XGTACX_site208],8.85 ± 0.39
5,GCCATAATATGACATACACACACAAAAAAAAAAAAA [CACACA_site8353],8.45 ± 0.28
6,AAACAATTGAATAAATGTACAGATACATTTTTTTAA [XGTACX_site5386],8.23 ± 0.36
7,TATTTATCTATTTTGTTATATAATAAAATAAAATAA [CACACA_negctrl_site281],8.13 ± 0.37
8,AAAAATAAACAAAATTGTACACATTACATACATATA [XGTACX_site966],8.59 ± 0.36
9,AGGTGCAAAAATAAAACATGCAAAAATAAAAATGAA [TGCATGCA_site502],9.15 ± 0.44
10,TAATAAAAAATATATACACACAAATAAATAAATAAA [CACACA_site4037],8.75 ± 0.62
11,AATAGTCGTGTGCATACACACCTTAACTATAATATA [CACACA_site6636],8.46 ± 0.29
12,AATAATTAAATAAGAGTGCATGAAACAGGAAATTTC,9.1 ± 0.33
13,TTAGCAACTATTACTACACACATTTTTATATAACTT [CACACA_site6762],8.58 ± 0.48
14,TATTGTTAAAATGAATAATTAAAACAGTAATGAATA [XGTACX_negctrl_site170],8.37 ± 0.35
15,AAGAAATAAAGCAAAACATGCACTCGAAAATGTTTT [TGCATGCA_site1014],8.74 ± 0.33
16,CGCATGCAATGTTAATGTACATATATATATATATGT [XGTACX_site3316],9.395 ± 0.049
17,ATGTCTAATTTTGATGCACACTTTTGTGCAATTAAA [CACACA_site5589],8.45 ± 0.2
18,TATATATGTTTTTATGTACACACTTTTAACCTAAGA [CACACA_site1149],8.71 ± 0.36
19,ATTTATTGACTATTTACACACATATTTATTAAAATA [CACACA_site4980],8.79 ± 0.42
20,TACGCTCCCAGACACACACACACACCGATATAATAT [CACACA_site8098],8.81 ± 0.49
21,TATTATATTATGTGATGTACATATTTATATAGGCCC [XGTACX_site4746],8.68 ± 0.5
22,TATTACATACCTTATTGTACAAATTATATATTAAAG [XGTACX_site7334],8.62 ± 0.37
